Our source for the AUC and IC50 values is the supplement of paper PMC4967469.

By IC50 is meant the dose at which the fit gives 50% viability; a limit (>, <) means that the fit lies beyond the doses tested. The AUC spans the tested range (256-fold, ending at the top dose) of the same fit: 1 means no effect, lower means more sensitive. Any top dose called inferred is not printed in the source and was worked back from the curve model.

Compound in this assay: CCOc1cc2ncc(C#N)c(Nc3ccc(F)c(Cl)c3)c2cc1NC(=O)/C=C/CN(C)C [EKB-569]
Briefly: Viability of human cancer cell lines after 72 h of drug (GDSC screen). The conditions noted are these: top dose inferred. The procedure: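 Human cancer cell lines in 384-well plates, medium with 10% serum, drug for 72 h over a 256-fold dose range (nine 2-fold or five 4-fold steps up to the top dose). Adherent lines were fixed and stained with the nucleic acid dye Syto60, suspension lines read with resazurin; signal relative to control wells, capped at 0 and 100%. One two-parameter sigmoid per drug and line, fitted in a mixed model over all curves with the slope shared within a line.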
One may read the IC50 as the concentration that gives 50% inhibition. As for “LS-123 (large intestine, adherent, top dose 2.5 µM)”, the AUC amounted to 0.776 and the IC50 was 1350 nM.

“OVMIU (ovary, adherent, top dose 2.5 µM)”: the AUC worked out at 0.379 and the IC50 was 66.6 nM.

“BPH-1 (prostate, adherent, top dose 2.5 µM)”: the AUC is 0.208 and the IC50 came out at 19.2 nM.

With “COLO-792 (melanoma, adherent, top dose 2.5 µM)”, the AUC was 0.883 and the IC50 is more than 2500 nM.

Regarding “IMR-5 (neuroblastoma, adherent, top dose 2.5 µM)”, the AUC is 0.875 and the IC50 was found to be 1810 nM.

In the case of “COR-L23 (large cell lung carcinoma, adherent, top dose 2.5 µM)”, the AUC stood at 0.802 and the IC50 was 1190 nM.

In the case of “KASUMI-1 (acute myeloid leukaemia, suspension, top dose 2.5 µM)”, the AUC was 0.68 and the IC50 was 499 nM.

Regarding “H2591 (mesothelioma, adherent, top dose 2.5 µM)”, the AUC was determined as 0.97 and the IC50 was more than 2500 nM.

“KLE (endometrium, adherent, top dose 2.5 µM)”: the AUC worked out at 0.766 and the IC50 came to 1480 nM.

For the cell line “LU-165 (small cell lung carcinoma, suspension, top dose 2.5 µM)”, the AUC came to 0.988 and the IC50 is more than 2500 nM.

In the case of “PANC-08-13 (pancreas, adherent, top dose 2.5 µM)”, the AUC is 0.796 and the IC50 came to 1560 nM.

Consider “MDA-MB-330 (breast, adherent, top dose 2.5 µM)”, for which the AUC came to 0.969 and the concentration for half-maximal inhibition (IC50) is more than 2500 nM.

As for “TCCSUP (bladder, adherent, top dose 2.5 µM)”, the AUC is 0.976 and the IC50 is more than 2500 nM.

As to “DSH1 (bladder, adherent, top dose 2.5 µM)”, the AUC came out at 0.431 and the IC50 was found to be 102 nM.

In the case of “H-EMC-SS (chondrosarcoma, adherent, top dose 2.5 µM)”, the AUC was found to be 0.942 and the IC50 was more than 2500 nM.

As for “H2461 (mesothelioma, adherent, top dose 2.5 µM)”, the AUC worked out at 0.983 and the IC50 is more than 2500 nM.

In the case of “NCI-H1573 (lung adenocarcinoma, adherent, top dose 2.5 µM)”, the AUC turned out to be 0.982 and the IC50 is more than 2500 nM.

In the case of “RH-1 (rhabdomyosarcoma, adherent, top dose 2.5 µM)”, the AUC was 0.903 and the half-inhibitory concentration (IC50) was determined as 2340 nM.

For the cell line “NCI-H747 (large intestine, adherent, top dose 20 µM)”, the AUC came to 0.234 and the IC50 is 174 nM.

Take “COLO-824 (breast, adherent, top dose 2.5 µM)”: the AUC turned out to be 0.913 and the IC50 was more than 2500 nM.

Turning to “DMS-273 (small cell lung carcinoma, adherent, top dose 2.5 µM)”, the AUC was determined as 0.959 and the concentration for half-maximal inhibition (IC50) was more than 2500 nM.

Regarding “786-0 (kidney, adherent, top dose 2.5 µM)”, the AUC came to 0.815 and the IC50 was found to be 1240 nM.

In the case of “OMC-1 (cervix, adherent, top dose 2.5 µM)”, the AUC came to 0.85 and the IC50 came out at 2040 nM.

As for “KYSE-520 (oesophagus, adherent, top dose 2.5 µM)”, the AUC is 0.976 and the IC50 was more than 2500 nM.

Regarding “G-MEL (melanoma, adherent, top dose 2.5 µM)”, the AUC was 0.876 and the IC50 amounted to 2420 nM.

Take “TUR (B-cell lymphoma, suspension, top dose 2.5 µM)”: the AUC was found to be 0.65 and the IC50 stood at 393 nM.

Take “LS-411N (large intestine, adherent, top dose 20 µM)”: the AUC was 0.608 and the 50% inhibitory concentration (IC50) stood at 2650 nM.
